# Source: the supplement of paper PMC8728848
# The other results are listed elsewhere or left out.
# What was measured:
# Assay in all cases: glycan array binding signal (z-score within array); higher = stronger binding
# Details in all cases: glycan notation: IUPAC condensed, linker removed
# Gal3S(b1-4)Glc = biological target: Gal3S(b1-4)Glc
# Method in brief: (§1)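 Glycan array binding is given as a within-array Z-score, which can be read as non-binding when negative. The arrays, 3228 of them, came from the Consortium for Functional Glycomics database and were retained only where the protein sequence was available. Z-scores were averaged across arrays of the same protein sequence at different concentrations or buffers and across linkers.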
# Gal3S(b1-4)Glc6S = biological target: Gal3S(b1-4)Glc6S
# Method in brief: as §1
# Gal3S(b1-4)GlcNAc = biological target: Gal3S(b1-4)GlcNAc
# Method in brief: as §1
# [1] = biological target: Gal3S(b1-4)[Fuc(a1-3)]Glc6S
# Method in brief: as §1
# [2] = biological target: Gal3S(b1-4)[Fuc(a1-3)]GlcNAc
# Method in brief: as §1
# [3] = biological target: Gal3S(b1-4)[Fuc(a1-3)]GlcNAc6S
# Method in brief: as §1
# Gal3S4S(b1-4)GlcNAc = biological target: Gal3S4S(b1-4)GlcNAc
# Method in brief: as §1
# Gal3S6S(b1-4)GlcNAc = biological target: Gal3S6S(b1-4)GlcNAc
# Method in brief: as §1
# Gal3S6S(b1-4)GlcNAc6S = biological target: Gal3S6S(b1-4)GlcNAc6S
# Method in brief: as §1
# Gal4S(b1-4)GlcNAc = biological target: Gal4S(b1-4)GlcNAc
# Method in brief: as §1
# Gal4S6S(b1-4)GlcNAc = biological target: Gal4S6S(b1-4)GlcNAc
# Method in brief: as §1
# Gal6P(b1-4)GlcNAc = biological target: Gal6P(b1-4)GlcNAc
# Method in brief: as §1
# Gal6S(b1-3)GlcNAc = biological target: Gal6S(b1-3)GlcNAc
# Method in brief: as §1
# Gal6S(b1-3)GlcNAc6S = biological target: Gal6S(b1-3)GlcNAc6S
# Method in brief: as §1
# Gal6S(b1-4)Glc = biological target: Gal6S(b1-4)Glc
# Method in brief: as §1
# Gal6S(b1-4)Glc6S = biological target: Gal6S(b1-4)Glc6S
# Method in brief: as §1
# Gal6S(b1-4)GlcNAc = biological target: Gal6S(b1-4)GlcNAc
# Method in brief: as §1
# Gal6S(b1-4)GlcNAc6S = biological target: Gal6S(b1-4)GlcNAc6S
# Method in brief: as §1
# GalNAc(a1-3)Gal = biological target: GalNAc(a1-3)Gal
# Method in brief: as §1
# GalNAc(a1-3)GalNAc = biological target: GalNAc(a1-3)GalNAc
# Method in brief: as §1
# [4] = biological target: GalNAc(a1-3)GalNAc(b1-3)Gal(a1-4)Gal(b1-4)Glc
# Method in brief: as §1
# [5] = biological target: GalNAc(a1-3)GalNAc(b1-3)Gal(a1-4)Gal(b1-4)GlcNAc
# Method in brief: as §1
# GalNAc(b1-3)Gal = biological target: GalNAc(b1-3)Gal
# Method in brief: as §1
# [6] = biological target: GalNAc(b1-3)Gal(a1-4)Gal(b1-4)GlcNAc
# Method in brief: as §1
# [7] = biological target: GalNAc(b1-3)Gal(a1-4)Gal(b1-4)GlcNAc(b1-3)Gal(b1-4)Glc
# Method in brief: as §1
# [8] = biological target: GalNAc(b1-3)Gal(a1-6)Gal(b1-4)Glc
# Method in brief: as §1
# GalNAc(b1-3)GalNAc = biological target: GalNAc(b1-3)GalNAc
# Method in brief: as §1
# GalNAc(b1-3)GlcNAc = biological target: GalNAc(b1-3)GlcNAc
# Method in brief: as §1
# GalNAc(b1-4)Gal(b1-4)Glc = biological target: GalNAc(b1-4)Gal(b1-4)Glc
# Method in brief: as §1
# GalNAc(b1-4)GlcNAc = biological target: GalNAc(b1-4)GlcNAc
# Method in brief: as §1
# [9] = biological target: GalNAc(b1-4)GlcNAc(b1-2)Man
# Method in brief: as §1
# [10] = biological target: GalNAc(b1-4)GlcNAc(b1-2)Man(a1-3)[GalNAc(b1-4)GlcNAc(b1-2)Man(a1-6)]Man(b1-4)GlcNAc(b1-4)GlcNAc
# Method in brief: as §1
# [11] = biological target: GalNAc(b1-4)GlcNAc(b1-3)GalNAc(b1-4)GlcNAc
# Method in brief: as §1
# GalNAc(b1-4)GlcNAc6S = biological target: GalNAc(b1-4)GlcNAc6S
# Method in brief: as §1
# GalNAc(b1-6)GalNAc = biological target: GalNAc(b1-6)GalNAc
# Method in brief: as §1
# GalNAc3S(b1-4)GlcNAc = biological target: GalNAc3S(b1-4)GlcNAc
# Method in brief: as §1
# GalNAc3S(b1-4)GlcNAc3S = biological target: GalNAc3S(b1-4)GlcNAc3S
# Method in brief: as §1
# [12] = biological target: GalNAc3S(b1-4)[Fuc(a1-3)]GlcNAc
# Method in brief: as §1
# GalNAc4S6S(b1-4)GlcNAc = biological target: GalNAc4S6S(b1-4)GlcNAc
# Method in brief: as §1
# GalNAc6S(b1-4)GlcNAc = biological target: GalNAc6S(b1-4)GlcNAc
# Method in brief: as §1
# Glc(a1-4)Glc = biological target: Glc(a1-4)Glc
# Method in brief: as §1
# [13] = biological target: Glc(a1-4)Glc(a1-4)Glc(a1-4)Glc
# Method in brief: as §1
# Glc(a1-6)Glc(a1-6)Glc = biological target: Glc(a1-6)Glc(a1-6)Glc
# Method in brief: as §1
# [14] = biological target: Glc(a1-6)Glc(a1-6)Glc(a1-6)Glc
# Method in brief: as §1
# Glc(b1-4)Glc = biological target: Glc(b1-4)Glc
# Method in brief: as §1
binder,measurement,setting,value
AidA (Burkholderia cenocepacia) (protein) MSRVTDVLVSFDTETILKKYPNPSKNPAAPTLIDWRYVYMVTNQDNVISGQAGGELDLKAQVGDLIRWRETSLSLGFENQVVFYKFIGNVGNDLISTPTPRVAEASIPVPNTSKPEVPTCQKVANYYWSSECLKVGRVTYHFQFQIIDRNCQSQGCFSWDPFISIHN,glycan array binding signal (z-score),Gal3S(b1-4)Glc,-0.068
same,glycan array binding signal (z-score),Gal3S(b1-4)Glc6S,-0.072
same,glycan array binding signal (z-score),Gal3S(b1-4)GlcNAc,-0.063
same,glycan array binding signal (z-score),[1],2.38
same,glycan array binding signal (z-score),[2],-0.437
same,glycan array binding signal (z-score),[3],0.053
same,glycan array binding signal (z-score),Gal3S4S(b1-4)GlcNAc,-0.443
same,glycan array binding signal (z-score),Gal3S6S(b1-4)GlcNAc,-0.009
same,glycan array binding signal (z-score),Gal3S6S(b1-4)GlcNAc6S,0.334
same,glycan array binding signal (z-score),Gal4S(b1-4)GlcNAc,0.016
same,glycan array binding signal (z-score),Gal4S6S(b1-4)GlcNAc,0.938
same,glycan array binding signal (z-score),Gal6P(b1-4)GlcNAc,-0.562
same,glycan array binding signal (z-score),Gal6S(b1-3)GlcNAc,0.725
same,glycan array binding signal (z-score),Gal6S(b1-3)GlcNAc6S,-0.324
same,glycan array binding signal (z-score),Gal6S(b1-4)Glc,-0.117
same,glycan array binding signal (z-score),Gal6S(b1-4)Glc6S,-0.308
same,glycan array binding signal (z-score),Gal6S(b1-4)GlcNAc,0.628
same,glycan array binding signal (z-score),Gal6S(b1-4)GlcNAc6S,-0.704
same,glycan array binding signal (z-score),GalNAc(a1-3)Gal,0.384
same,glycan array binding signal (z-score),GalNAc(a1-3)GalNAc,-0.507
same,glycan array binding signal (z-score),[4],0.288
same,glycan array binding signal (z-score),[5],-0.323
same,glycan array binding signal (z-score),GalNAc(b1-3)Gal,0.1
same,glycan array binding signal (z-score),[6],1.03
same,glycan array binding signal (z-score),[7],-0.049
same,glycan array binding signal (z-score),[8],-0.129
same,glycan array binding signal (z-score),GalNAc(b1-3)GalNAc,-0.617
same,glycan array binding signal (z-score),GalNAc(b1-3)GlcNAc,-0.115
same,glycan array binding signal (z-score),GalNAc(b1-4)Gal(b1-4)Glc,0.236
same,glycan array binding signal (z-score),GalNAc(b1-4)GlcNAc,1.43
same,glycan array binding signal (z-score),[9],0.445
same,glycan array binding signal (z-score),[10],1.26
same,glycan array binding signal (z-score),[11],-0.139
same,glycan array binding signal (z-score),GalNAc(b1-4)GlcNAc6S,-0.748
same,glycan array binding signal (z-score),GalNAc(b1-6)GalNAc,-0.239
same,glycan array binding signal (z-score),GalNAc3S(b1-4)GlcNAc,0.333
same,glycan array binding signal (z-score),GalNAc3S(b1-4)GlcNAc3S,-0.433
same,glycan array binding signal (z-score),[12],-0.28
same,glycan array binding signal (z-score),GalNAc4S6S(b1-4)GlcNAc,-0.374
same,glycan array binding signal (z-score),GalNAc6S(b1-4)GlcNAc,-0.593
same,glycan array binding signal (z-score),Glc(a1-4)Glc,0.105
same,glycan array binding signal (z-score),[13],-0.244
same,glycan array binding signal (z-score),Glc(a1-6)Glc(a1-6)Glc,-1.29
same,glycan array binding signal (z-score),[14],-0.597
same,glycan array binding signal (z-score),Glc(b1-4)Glc,-0.677
